From publication PMC4336329 (PLoS ONE, 2015)
The whole screen tested about 310,000 compounds, of which about 14,000 (4.5%) showed an effect of 50% or more. Effects have a minus sign here. The list shows a part of the results.

These compounds were tested against human ether-à-go-go-related gene (hERG) potassium channel (human, UniProt Q12809) (assay: primary screen, population patch clamp on CHO cells stably expressing hERG).
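Further: peak tail current of the secondary pulse compared with the same well before compound.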

Sequence of human ether-à-go-go-related gene (hERG) potassium channel (Q12809 whole entry, looked up): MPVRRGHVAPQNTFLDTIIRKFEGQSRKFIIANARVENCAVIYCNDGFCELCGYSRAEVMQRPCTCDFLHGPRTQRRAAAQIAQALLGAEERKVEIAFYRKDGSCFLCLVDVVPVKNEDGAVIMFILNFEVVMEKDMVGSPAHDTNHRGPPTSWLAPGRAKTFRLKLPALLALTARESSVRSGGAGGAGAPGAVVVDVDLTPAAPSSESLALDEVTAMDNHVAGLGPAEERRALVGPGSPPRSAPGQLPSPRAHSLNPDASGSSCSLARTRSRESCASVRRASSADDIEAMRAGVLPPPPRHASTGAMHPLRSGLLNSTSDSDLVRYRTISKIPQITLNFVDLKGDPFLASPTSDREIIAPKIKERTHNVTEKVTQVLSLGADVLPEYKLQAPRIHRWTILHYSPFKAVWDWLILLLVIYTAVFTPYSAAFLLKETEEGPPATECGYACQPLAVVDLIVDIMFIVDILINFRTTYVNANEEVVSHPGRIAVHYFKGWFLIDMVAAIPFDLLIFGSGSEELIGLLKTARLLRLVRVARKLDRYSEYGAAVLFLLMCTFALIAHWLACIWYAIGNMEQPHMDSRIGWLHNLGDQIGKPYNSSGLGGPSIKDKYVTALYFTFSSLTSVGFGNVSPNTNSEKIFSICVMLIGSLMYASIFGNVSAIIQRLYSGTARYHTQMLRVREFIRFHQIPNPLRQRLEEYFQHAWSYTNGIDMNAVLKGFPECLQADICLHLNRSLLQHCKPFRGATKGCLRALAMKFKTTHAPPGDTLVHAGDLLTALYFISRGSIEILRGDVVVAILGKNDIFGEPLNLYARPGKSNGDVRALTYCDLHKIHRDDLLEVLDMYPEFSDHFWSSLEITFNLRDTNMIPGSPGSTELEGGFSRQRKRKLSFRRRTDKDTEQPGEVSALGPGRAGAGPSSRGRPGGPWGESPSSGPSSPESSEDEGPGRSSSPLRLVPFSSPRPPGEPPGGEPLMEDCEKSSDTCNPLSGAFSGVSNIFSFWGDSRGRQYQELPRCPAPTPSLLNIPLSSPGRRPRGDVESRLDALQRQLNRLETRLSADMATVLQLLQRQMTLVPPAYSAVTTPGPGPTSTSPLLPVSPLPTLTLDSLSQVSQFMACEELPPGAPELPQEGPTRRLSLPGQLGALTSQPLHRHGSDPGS

First: Cn1cccc1Cc1nnc(SCC(=O)Nc2ccc(F)cc2)n1CCc1ccccc1
Second: CCn1c(COc2ccccc2Cl)nnc1SCC(=O)Nc1ncccc1C
The “hERG current change (%, negative = inhibition) at 10uM” value of the first is lower: -41.3% for the first, -2.78% for the second.

First: O=C1NCCCc2c1no[n+]2[O-]
Second: Cc1ccc(CSc2nnc([C@@H]3CCCN3)o2)cc1.Cl
The “hERG current change (%, negative = inhibition) at 10uM” value of the first is higher: 10.1% for the first, -10.2% for the second.

First: C/C(=N\NC(=O)CSc1nc(C)cc(C)n1)c1ccc([N+](=O)[O-])cc1
Second: Cc1cc([N+](=O)[O-])ccc1NC(=O)Nc1ccccc1F
The “hERG current change (%, negative = inhibition) at 10uM” value of the first is lower: -10.8% for the first, 10% for the second.

First: Cc1ccccc1NC(=O)COC(=O)c1cc(S(=O)(=O)N2CCOCC2)ccc1C
Second: CC(NC(=O)COC(=O)c1cc([N+](=O)[O-])ccc1N1CCOCC1)c1ccc(F)cc1 (stereo not shown)
The “hERG current change (%, negative = inhibition) at 10uM” value of the first is higher: -3.81% for the first, -56.8% for the second.

Going from `CCN1CCN(C(=O)COc2ccc(S(=O)(=O)NC(C)C)cc2)CC1` to `CCN1CCN(C(=O)CCN2C(=O)c3ccccc3S2(=O)=O)CC1.Cl`, the “hERG current change (%, negative = inhibition) at 10uM” value falls from 16% to 7%.

First: S=C(NCCN1CCOCC1)NC1CCCC1
Second: CC1(C)C2CCC(C2)C1(C)NC(=O)CNCC1CCCCC1.Cl (stereo not shown)
The “hERG current change (%, negative = inhibition) at 10uM” value of the first is higher: 13.4% for the first, 10.7% for the second.

First: CCOC(=O)NN=C1CN(S(=O)(=O)c2ccc(C)cc2)C1
Second: CCOc1ccccc1NC(=O)C1CCCN(S(=O)(=O)c2ccccc2)C1 (stereo not shown)
The “hERG current change (%, negative = inhibition) at 10uM” value of the first is higher: 14.7% for the first, -19.2% for the second.

Compared with `O=Cc1ccccc1OCCOc1ccc([N+](=O)[O-])cc1`, `N/C(Cc1ccc(Cl)cc1)=N\OC(=O)Cc1ccc([N+](=O)[O-])cc1` is higher in “hERG current change (%, negative = inhibition) at 10uM” value: -35% for the first, -4.32% for the second.

Compared with `CNC(=O)c1ccc(NC(=O)c2cc(S(=O)(=O)N(C)C)ccc2N2CCCC2)cc1`, `COc1ccccc1C(=O)NCCC(=O)Nc1ccc(S(=O)(=O)N2CCCC(C)C2)cc1` (stereo not shown) is lower in “hERG current change (%, negative = inhibition) at 10uM” value: 1.67% for the first, -1.23% for the second.

Compared with `COc1ccccc1Nc1ccncc1[N+](=O)[O-]`, `Cc1ccnc(Sc2ncccc2[N+](=O)[O-])n1` is higher in “hERG current change (%, negative = inhibition) at 10uM” value: 3.13% for the first, 16% for the second.

First: CCS(=O)(=O)Nc1cccc(C2=NN(S(C)(=O)=O)C(c3cccs3)C2)c1 (stereo not shown)
Second: CS(=O)(=O)N1N=C(c2cccs2)CC1c1ccc(F)cc1 (stereo not shown)
The “hERG current change (%, negative = inhibition) at 10uM” value of the first is lower: -11.1% for the first, 1.38% for the second.

First: COc1ccc(NC(=O)c2cc(F)c(F)cc2Cl)cc1Cl
Second: COc1cccc(NC(=O)c2cccc(C(=O)Nc3cccc(OC)c3)n2)c1
The “hERG current change (%, negative = inhibition) at 10uM” value of the first is lower: -5.58% for the first, 25% for the second.

Going from `O=C(Nc1ccc2c(c1)CCCN2C(=O)c1cccs1)c1ccccc1` to `Cc1cc2ccccn2c1C(=O)Nc1ccccc1`, the “hERG current change (%, negative = inhibition) at 10uM” value rises from -10.1% to -2.23%.

Going from `FC(F)(F)c1ccccc1CN1CCC(Cc2ccccc2)CC1` to `O=S1(=O)CCO[C@H]2Cc3ccccc3[C@H]2N1Cc1ccccc1`, the “hERG current change (%, negative = inhibition) at 10uM” value falls from 12% to -9.5%.

First: CCOC(=O)c1oc2nc(C(C)C)c3c(c2c1N)CCC3
Second: Cc1ccc(OC[C@H](O)[C@H](C)NC(C)C)c2c1CCC2.Cl
The “hERG current change (%, negative = inhibition) at 10uM” value of the first is higher: 14.5% for the first, -10.6% for the second.

First: COc1cc(NC(=S)N2CCN(c3ccccn3)CC2)cc(OC)c1
Second: COc1ccc(N2CCN(C(=O)Cc3nn(C)c(=O)c4ccccc34)CC2)cc1
The “hERG current change (%, negative = inhibition) at 10uM” value of the first is higher: 11.1% for the first, -23.8% for the second.

Going from `O=C(O)c1cc(N2C(=O)C3CCCCC3C2=O)ccc1NCc1cccnc1` (stereo not shown) to `CC(=O)Nc1ccc(S(=O)(=O)NCc2cccnc2)cc1`, the “hERG current change (%, negative = inhibition) at 10uM” value falls from 22.4% to 10.6%.

Compared with `CNC(=S)NNC(=O)c1oc2nc(-c3ccccc3)cc(-c3ccco3)c2c1N`, `CC(=O)N(C(C)=O)c1nc(-c2ccccc2)cn1/N=C/c1ccccc1` is higher in “hERG current change (%, negative = inhibition) at 10uM” value: 4.29% for the first, 14.2% for the second.

First: CCN(CC)C(=O)CC(c1cc(OC)c(OC)c(OC)c1)c1c(O)cc(OC)cc1OC (stereo not shown)
Second: COc1cc(NC(=O)CNC(=O)Cn2ccc3ccccc3c2=O)cc(OC)c1OC
The “hERG current change (%, negative = inhibition) at 10uM” value of the first is lower: 3.55% for the first, 18.4% for the second.

First: CC(=O)c1cccc(CN2CCN(CCC(C)C)C(CCO)C2)c1 (stereo not shown)
Second: COc1cc(CN2CCN(C(C)C)C(CCO)C2)ccc1OCc1ccccc1 (stereo not shown)
The “hERG current change (%, negative = inhibition) at 10uM” value of the first is higher: -29% for the first, -55.2% for the second.

Compared with `Cc1ccc(NC(=O)CSc2nnc(N)s2)cc1S(=O)(=O)N1CCOCC1`, `O=C(CN1CCN(C(=O)c2ccco2)CC1)Nc1ccc2c(c1)OCCO2` is lower in “hERG current change (%, negative = inhibition) at 10uM” value: 8.24% for the first, -6.63% for the second.

Compared with `O=C(c1cn(-c2ccccc2)nc1-c1cccs1)N1CCOCC1`, `CC(C)(C)OC(=O)N/N=C/c1cn(-c2ccccc2)nc1-c1cccnc1` is lower in “hERG current change (%, negative = inhibition) at 10uM” value: -11.5% for the first, -49.3% for the second.

First: CCOc1ccc(/C=C2\SC(=S)N(CCC(=O)Nc3cccc(C(=O)O)c3)C2=O)cc1
Second: CC(C)c1ccc(NC(=O)CCNC(=O)Cn2ccc3ccccc3c2=O)cc1
The “hERG current change (%, negative = inhibition) at 10uM” value of the first is higher: 3.57% for the first, -13.3% for the second.

First: CCN(CC(=O)NC(C)(C)C)C(=O)COc1c(Cl)cc(Cl)c2ccc(C)nc12
Second: CCOC(=O)c1sc2nc(CSc3ccccc3Cl)[nH]c(=O)c2c1C
The “hERG current change (%, negative = inhibition) at 10uM” value of the first is lower: -27.6% for the first, 10.7% for the second.

Compared with `CC(C)CNc1ncnc2c1cnn2Cc1ccc(Cl)cc1`, `CCn1ncc(Br)c1C(=O)Nc1ccc(C(=O)OC(C)C)cc1` is lower in “hERG current change (%, negative = inhibition) at 10uM” value: -7.32% for the first, -16.4% for the second.

Compared with `O=C(c1ccccc1)c1nc2ccccc2[nH]c1=O`, `O=C(O)C(Cc1c[nH]c2ccccc12)N1C(=O)c2ccccc2C1=O` (stereo not shown) is higher in “hERG current change (%, negative = inhibition) at 10uM” value: -9.7% for the first, -2.61% for the second.

Compared with `COc1ccc([C@H]2/C=C\CN(C(=O)c3ccc(C)cc3)[C@@H](C)C(=O)N2Cc2ccc(F)cc2)cc1`, `CCn1cc(CNC(=O)c2ccc3nc(Cc4ccc(OC)cc4)oc3c2)cn1` is higher in “hERG current change (%, negative = inhibition) at 10uM” value: -48.4% for the first, 6.8% for the second.

First: Cc1cc(O)cc(O)c1C(=O)Cc1ccccc1
Second: Cn1cnc2cc(OC(=O)c3ccccc3)ccc21
The “hERG current change (%, negative = inhibition) at 10uM” value of the first is lower: -11.7% for the first, -10.8% for the second.

Compared with `OCC[n+]1c2ccccc2nc2ccc(N3CCOCC3)cc21.[O-][Cl+3]([O-])([O-])[O-]`, `Cc1cccc(OCc2nc3ccccc3n2C)c1.Cl` is higher in “hERG current change (%, negative = inhibition) at 10uM” value: 3.86% for the first, 4.26% for the second.

Compared with `Cc1noc2ncnc(N3CCCCC3)c12`, `Cc1cc(C)c2nc(N3CCCC(C(=O)N4CCC(C(N)=O)CC4)C3)sc2c1` (stereo not shown) is lower in “hERG current change (%, negative = inhibition) at 10uM” value: 9.01% for the first, -19.3% for the second.

First: O=C(NCCC(=O)N1CCN(S(=O)(=O)c2ccccc2Cl)CC1)Nc1ccccc1
Second: O=C(NC(=S)N1CCN(C/C=C/c2ccccc2)CC1)c1ccc(F)cc1
The “hERG current change (%, negative = inhibition) at 10uM” value of the first is higher: -11.8% for the first, -43.7% for the second.

First: Nc1c(C(=O)N2CCOCC2)sc2nc(N3CCOCC3)c3c(c12)CCCC3
Second: N#Cc1c(NC(=O)CSc2ncn(-c3ccccc3)n2)sc2c1CCCC2
The “hERG current change (%, negative = inhibition) at 10uM” value of the first is higher: 6.33% for the first, 5.33% for the second.

Going from `Cc1ccc(C(=O)NCCC(=O)Nc2ccccc2C)cc1` to `Cc1ccc(CSCC(=O)N(C)CC(=O)Nc2ccc(C)cc2)cc1`, the “hERG current change (%, negative = inhibition) at 10uM” value falls from 19.5% to -2.48%.

Going from `O=C(OCc1nnc(-c2ccccc2)o1)c1cn(-c2ccccc2)nc1-c1ccccc1` to `Cc1ccccc1N1OC2C(=O)N(c3ccc(F)cc3)C(=O)C2C1c1ccccn1` (stereo not shown), the “hERG current change (%, negative = inhibition) at 10uM” value rises from -8.59% to 6.95%.

Compared with `CC[n+]1c(/C=C2/C=C(C)CC(C)(C)C2)sc2ccc(OC)cc21.Cc1ccc(S(=O)(=O)[O-])cc1`, `COc1ccc(Cl)cc1NC(=O)CSc1nnc(Cc2ccc(C)cc2)c(=O)[nH]1` is higher in “hERG current change (%, negative = inhibition) at 10uM” value: -68.7% for the first, -5.22% for the second.

Compared with `CCOc1cc(Br)c(C=O)cc1OCC`, `CCOC(=O)c1ccc2c(c1)n(CCO)c(C)[n+]2CC.[I-]` is lower in “hERG current change (%, negative = inhibition) at 10uM” value: 22.1% for the first, 10.6% for the second.

Going from `Cc1cc(=O)[nH]c(-n2nc(C)c(Oc3ccccc3O)c2C)n1` to `Cc1ccccc1-n1c(-c2ccc(=O)[nH]n2)n[nH]c1=S`, the “hERG current change (%, negative = inhibition) at 10uM” value rises from -1.93% to 24.5%.

First: COc1ccc(NC2=CC(=O)CC(c3ccccc3)C2)cc1 (stereo not shown)
Second: COc1ccc(C)cc1NC(=O)c1ccc(NS(=O)(=O)c2cccs2)cc1
The “hERG current change (%, negative = inhibition) at 10uM” value of the first is lower: 0.869% for the first, 23.4% for the second.

Compared with `CCOC(=O)NN1C(=O)c2ccccc2NC12CCCC2`, `CCOC(=O)c1cnc2c(OC)cccc2c1N1CCN(c2ccccc2OC)CC1` is lower in “hERG current change (%, negative = inhibition) at 10uM” value: -6.13% for the first, -45.4% for the second.

First: Cc1ccsc1/C=N/NC(=O)C(N)=O
Second: NC1=NN(c2cccc(C(=O)O)c2)C(=O)C1
The “hERG current change (%, negative = inhibition) at 10uM” value of the first is lower: 10.6% for the first, 34.2% for the second.

Going from `Cc1ccccc1C1C(C#N)=C2N=C(N)c3ccccc3N2C2=C1C(=O)CCC2` (stereo not shown) to `COc1ccc(Cn2c(C)cc3c(c2=O)C(c2cccs2)C(C#N)=C(N)O3)cc1OC` (stereo not shown), the “hERG current change (%, negative = inhibition) at 10uM” value rises from -4.41% to 1.42%.

Going from `Cc1nc2c3ccccc3nc(NNC(=O)CCC(=O)NCCN3CCN(c4ccccc4F)CC3)n2n1` to `COc1ccccc1OCCn1c(SCC(=O)O)nc2ccccc21`, the “hERG current change (%, negative = inhibition) at 10uM” value falls from 2.88% to -4.47%.

Compared with `CCN(CC(O)Cn1c2ccccc2c2ccccc21)S(=O)(=O)c1ccc(F)cc1` (stereo not shown), `CCC1=NN(C(=O)c2ccc(Cl)cc2)C(O)(c2ccccc2)C1` (stereo not shown) is lower in “hERG current change (%, negative = inhibition) at 10uM” value: 12.2% for the first, -4.82% for the second.

Going from `CC(OC(=O)C1=COCCO1)C(=O)NC1CCCCC1C` (stereo not shown) to `Cc1ccc(Nc2nc(N)nc(CN3CCN(Cc4ccc5c(c4)OCO5)CC3)n2)cc1`, the “hERG current change (%, negative = inhibition) at 10uM” value falls from 12.7% to -73.3%.
